The full ranking holds about 33,000 sequences; the median of “E-score (-0.5 to 0.5)” is about -0.041, and the highest 2% start at about 0.37. This is one part of the list.
molecular target: T1, Ecm22 (UniProt Q05958); test: PBM E-score (8-mer binding enrichment) (E-score (-0.5 to 0.5)); higher = stronger / more preferred TF binding; most listed sequences are background and not binding sites; conditions: protein concentration: 200 nM; construct: GST-full length
T1 sequence: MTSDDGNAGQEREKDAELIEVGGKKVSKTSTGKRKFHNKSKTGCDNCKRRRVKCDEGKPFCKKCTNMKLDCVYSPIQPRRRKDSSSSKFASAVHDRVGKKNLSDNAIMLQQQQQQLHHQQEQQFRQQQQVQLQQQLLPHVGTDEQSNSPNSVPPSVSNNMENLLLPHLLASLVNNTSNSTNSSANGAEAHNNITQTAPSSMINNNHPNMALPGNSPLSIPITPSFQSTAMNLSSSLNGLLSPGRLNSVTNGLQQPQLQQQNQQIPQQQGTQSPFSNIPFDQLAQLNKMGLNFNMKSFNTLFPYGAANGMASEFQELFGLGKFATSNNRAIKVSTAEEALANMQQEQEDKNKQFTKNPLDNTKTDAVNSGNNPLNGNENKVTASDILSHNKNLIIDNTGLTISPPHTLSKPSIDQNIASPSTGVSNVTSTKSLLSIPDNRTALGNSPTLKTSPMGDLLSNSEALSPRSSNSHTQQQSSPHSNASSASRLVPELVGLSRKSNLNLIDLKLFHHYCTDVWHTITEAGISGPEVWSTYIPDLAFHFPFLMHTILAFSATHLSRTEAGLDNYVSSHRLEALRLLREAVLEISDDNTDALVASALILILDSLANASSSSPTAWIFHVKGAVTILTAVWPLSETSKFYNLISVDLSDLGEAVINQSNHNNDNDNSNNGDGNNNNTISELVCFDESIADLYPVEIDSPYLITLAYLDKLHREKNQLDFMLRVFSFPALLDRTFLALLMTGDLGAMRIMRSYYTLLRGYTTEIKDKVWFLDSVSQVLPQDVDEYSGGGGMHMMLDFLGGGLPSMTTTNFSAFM
Experimental: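 Universal 'all 10-mer' protein binding microarrays (Agilent AMADID 015681) probed with GST-tagged S. cerevisiae TFs (full-length or DBD) made by in vitro transcription/translation (PURExpress), about 100-200 nM. Bound TF was detected with fluorescent anti-GST. Each ungapped 8-mer (which stands for itself and its reverse complement) is scored by the PBM enrichment score (E-score), a modified Wilcoxon-Mann-Whitney statistic from -0.5 to +0.5, computed with the Universal PBM Analysis Suite. Scale: above 0.35 generally sequence-specific binding.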

Sequence | PBM E-score
ATTAATCC | 0.0266
CCCACGCA | 0.0382
TCTGCTAA | -0.086
ACGTGGTC | -0.0786
AGTTAATG | -0.0767
GATACCAA | 0.0918
CTTGACGA | 0.0482
AATAATAG | -0.13
GCCTACGC | -0.139
CTCGCAAC | 0.18
CATCGCGC | 0.184
AAAGTATG | -0.0997
CAAAAAAG | -0.224
ACGTGGTA | 0.166
AGCGAATC | 0.244
GATACTCC | -0.0275
GCCTAGAC | 0.0217
AAACAGTC | -0.058
CAGTATAA | 0.004
TCGTTTCA | 0.396
CGAGTCGA | 0.249
CGGGAGAG | 0.0796
ACATTGCC | -0.2
CAAAGAAG | 0.0285
CCATGGAG | -0.246

Sequence | PBM E-score
AGCGGGTC | -0.0372
GACAGAAA | 0.219
GACAGCAC | 0.103
CTCACGAA | 0.128
AAATTGAA | -0.166
AGGAGGGG | -0.2
GCACATTA | -0.0239
AACTCGCA | 0.223
CCTAGCCA | -0.177
ATATGGGA | -0.124
AAGAGAAC | 0.217
AAGGAAAT | -0.137
CGGCTTAC | 0.0978
ATCTGTCC | -0.198
AGGCAGGA | -0.0717
GTGCCGAA | 0.0561
CGCAGCAG | -0.0519
AAGAACAG | -0.13
AGTTGTAC | 0.124
CGAGAGTC | 0.0669
CTATTCTC | -0.212
CATACTAA | 0.0964
CTGGGCAC | 0.0366
ACTGATAA | -0.139
ACTCCTCT | -0.113

Sequence | PBM E-score
CCGACGTC | 0.138
TAGAGATA | 0.0142
TGTGCACA | -0.183
ATACGACG | 0.485
CAACGTAG | 0.0404
CCGTTAGA | 0.0314
GCAGACGA | 0.176
GCGGCACC | -0.0132
CTGACCCA | -0.312
CGCTCTTA | 0.215
CCCGTTGC | 0.111
GCAAGTTA | -0.0155
GCTGCGAC | -0.107
CGCGGAGC | 0.116
GGTTTGAA | 0.0742
CATAGTGC | 0.0266
AAGTTAGC | 0.0401
ATATTCCG | -0.0407
AGTGTGTC | 0.0483
GTCCGAAA | 0.249
ACACCCGT | 0.154
CGCAAGGA | 0.00205
GGGCTATA | -0.162
ACCACTAA | 0.123
ACGACAAT | 0.368

Sequence | PBM E-score
AAGGTGGT | -0.298
CGAACAAG | 0.158
ATTAGAGA | -0.0682
GCATGATA | -0.031
CCAGTCAG | -0.31
GCCACCCC | -0.106
ACAGACGT | -0.0727
CATTGATA | 0.0226
TGAAGTCA | -0.133
CACATATA | -0.117
CCCTGGAC | -0.193
CACGACAG | 0.0642
GCCTATTA | -0.0588
AATTCTCC | -0.0147
CATGAACA | 0.0163
AGTATGAG | -0.0843
CAAACTCG | 0.0876
AGGCCGCG | -0.0473
ATTCGCAC | 0.189
CGTTAGAC | 0.0318
GATAGAGA | -0.0432
GAACGGAA | 0.34
CAAATGAG | -0.00945
ACCGGAAT | -0.079
AGCCCGTC | -0.207

Sequence | PBM E-score
AAAACGAA | 0.277
AATATTGG | -0.0443
CGGATGCC | 0.097
AATGGTTG | -0.095
GTTCGAAC | 0.217
ACGTGGCG | 0.0766
ATGCTCTC | -0.0494
CTTAAGGA | -0.198
TATATAGA | 0.183
AGGTGCGG | -0.0606
AAGACAGA | 0.0769
AAACATTT | -0.0803
GGTGCACA | -0.0783
ATCGAAAG | -0.00466
CCTATTTA | -0.2
ACCGCACT | 0.188
AGGAACCC | -0.094
AATAACAG | 0.00164
CAACAGGA | -0.194
CTACGGGA | 0.146
ATACCCGC | 0.0566
AGTCGAAG | -0.17
ACCTCGCT | 0.29
AGGCGATG | -0.12
CGAACTCG | 0.307

Sequence | PBM E-score
CCTCAGCA | -0.151
GAGAGGAC | -0.187
TTATAAAA | -0.0561
GAACTGTC | 0.103
ACTCGCAG | 0.0817
CCTATTCA | -0.127
TCTACTCA | -0.182
AACTCCCC | -0.0812
CACTTGGC | -0.225
CCGTAATC | 0.0909
CCGTCGTA | 0.471
CCTTAGAG | -0.225
GTATGGAC | 0.0646
GGATATCA | -0.028
GCGCACGA | -0.0468
AAGACCCT | -0.199
AAGGACCC | -0.239
GAAAATCC | 0.0126
ACGAGATA | 0.346
AACAATGC | -0.0238
TCTCCACA | -0.283
CACTGCGG | 0.0326
CAGAGGCC | -0.0219
CAATCTAC | -0.0683
GGTGCGAC | 0.211

Sequence | PBM E-score
GCTCGGCA | 0.0931
CTGAGTAC | -0.0208
CCGGCATA | 0.0151
CGTCTAAA | -0.0198
CAGAATAA | -0.0347
AGTTCAAA | -0.149
AACCCTAT | -0.0857
AGGCCTAG | -0.272
GCATTATA | -0.0633
CTGCAGAC | -0.0407
ATAAATAG | 0.0526
CCAGATAC | 0.0732
GCTCAATA | -0.0598
TCCTGTCA | 0.143
CTAGGAAG | -0.309
AAGTTCGC | 0.21
ACTGCCCC | -0.227
TCAGTAGA | -0.126
GGAATGAA | -0.0789
AAGTACAT | 0.0633
CTTTAGAC | -0.147
GTCTATTA | 0.00854
